Test results reported in patent publication US20030143191A1 (published 2003).

Biological target: T1, CCR5 (G-protein coupled chemokine receptor) on human PBMC (human, UniProt P51681 1-352)
T1 construct: whole, on cells; The cells were primary PBMC, not transfectants, so the receptor is assigned through the CCR5 agonist MIP-1β; also called G-protein Chemokine Receptor CCR5
Assay: 125I-MIP-1β competition binding on human PBMC cultured 2 days; labelled competitor 0.17 nM 125I-MIP-1β; cells preincubated with sample 45 min at 37 °C, then hot ligand 60 min at RT; cell pellet collected by density centrifugation through oil; readout cpm
Method: Human PBMC were purified from whole blood and cultured for 2 days. […] After 60 minutes, cell bound ¹²⁵I-MIP-1 was separated from unbound ¹²⁵I-MIP-1, and the radioactivity determined.
PBMCs were grown, purified, and suspended in calcium buffer as described above in Example 49.

T1 sequence (P51681 whole entry): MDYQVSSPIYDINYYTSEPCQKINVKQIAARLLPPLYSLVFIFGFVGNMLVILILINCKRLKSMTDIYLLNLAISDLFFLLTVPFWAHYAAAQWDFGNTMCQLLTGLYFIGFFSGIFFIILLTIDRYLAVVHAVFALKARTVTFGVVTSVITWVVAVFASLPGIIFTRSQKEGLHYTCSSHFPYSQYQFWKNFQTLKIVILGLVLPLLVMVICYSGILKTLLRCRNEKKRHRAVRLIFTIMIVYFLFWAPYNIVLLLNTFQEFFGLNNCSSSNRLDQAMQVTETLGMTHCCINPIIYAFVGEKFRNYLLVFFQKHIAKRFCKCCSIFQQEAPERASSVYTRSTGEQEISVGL

binding result: binds
B1: Ckb1 fusion 1948 (pSAC35:d8HCC-1C.O.G[…]:HSA), ck-beta-1 […] fused with the mature form of HSA (other)
chain: GPYHPSECCFTYTTYKIPRQRIMDYYETNSQCSKPGIVFITKRGHSVCTNPSDKWVQDYIKDMKENDAHKSEVAHRFKDLGEENFKALVLIAFAQYLQQCPFEDHVKLVNEVTEFAKTCVADESAENCDKSLHTLFGDKLCTVATLRETYGEMADCCAKQEPERNECFLQHKDDNPNLPRLVRPEVDVMCTAFHDNEETFLKKYLYEIARRHPYFYAPELLFFAKRYKAAFTECCQAADKAACLLPKLDELR[about 200 residues cut from this listing]NLIKQNCELFEQLGEYKFQNALLVRYTKKVPQVSTPTLVEVSRNLGKVGSKCCKHPEAKRMPCAEDYLSVVLNQLCVLHEKTPVSDRVTKCCTESLVNRRPCFSALEVDETYVPKEFNAETFTFHSADICTLSEKERQIKKQTALVELVKHKPKATKEQLKAVMDDFAAFVEKCCKADDKETCFAEEGKKLVAASQAALGL
notes: Albumin fusion protein expressed in yeast
